According to the supplement of paper PMC7125110:
± gives the standard error. Variants at the floor of the assay are shown more often than the library holds them.

B1: glmS ribozyme (parent)
chain: AUAAAAGCGCCAGAACUACAGAAAUGUAGUUGACGAGGAGGAGGUUUAUCGAAUUUUCGGCGGAUGCCUCCAAA

Experiments:
Conditions in all cases: with glucosamine-6-phosphate
glucosamine-6-phosphate [1] = variants of: B1; experiment: self-cleavage kobs at 40 uM GlcN6P; higher = faster cleavage; RNA array
Summary of the method: (§1)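 Barcoded glmS ribozyme variants on sequenced MiSeq chips were transcribed in situ by E. coli RNA polymerase and tracked through a hybridised Cy3 probe at 37 °C. Glucosamine-6-phosphate (40 μM to 10 mM) in HEPES/KCl/Mg(OAc)2 buffer was flowed in, and tiles were imaged over ~14 h. Signals were normalised to baseline and to non-cleaving reference variants; per-tile medians were fit to one- or two-exponential decays to give kobs. kcat and KM came from weighted Michaelis–Menten fits across concentrations.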

glucosamine-6-phosphate [2] = variants of: B1; experiment: self-cleavage kobs at 640 uM GlcN6P; higher = faster cleavage; RNA array
Summary of the method: as §1

glucosamine-6-phosphate [3] = variants of: B1; experiment: self-cleavage kobs at 160 uM GlcN6P; higher = faster cleavage; RNA array
Summary of the method: as §1

glucosamine-6-phosphate [4] = variants of: B1; experiment: self-cleavage kobs at 10000 uM GlcN6P; higher = faster cleavage; RNA array
Summary of the method: as §1

glucosamine-6-phosphate [5] = variants of: B1; experiment: self-cleavage kobs at 2500 uM GlcN6P; higher = faster cleavage; RNA array
Summary of the method: as §1

Variant | self-cleavage kobs at 40 uM GlcN6P (glucosamine-6-phosphate [1]) | self-cleavage kobs at 640 uM GlcN6P (glucosamine-6-phosphate [2]) | self-cleavage kobs at 160 uM GlcN6P (glucosamine-6-phosphate [3]) | self-cleavage kobs at 10000 uM GlcN6P (glucosamine-6-phosphate [4]) | self-cleavage kobs at 2500 uM GlcN6P (glucosamine-6-phosphate [5])
G40U G43A | < 1e-05 s⁻¹ | < 1e-05 s⁻¹ | < 1e-05 s⁻¹ | < 1e-05 s⁻¹ | 
G38A C70U | < 1e-05 s⁻¹ |  |  |  | 
A36G U56A | < 1e-05 s⁻¹ | < 1e-05 s⁻¹ |  |  | 
G37A C61U | < 1e-05 s⁻¹ | < 1e-05 s⁻¹ |  |  | < 1e-05 s⁻¹
A36C G43C | < 1e-05 s⁻¹ |  |  |  | < 1e-05 s⁻¹
G35C G66A | < 1e-05 s⁻¹ |  |  |  | 
C34G G35A | < 1e-05 s⁻¹ | < 1e-05 s⁻¹ | < 1e-05 s⁻¹ |  | < 1e-05 s⁻¹
G37C G38C | < 1e-05 s⁻¹ | < 1e-05 s⁻¹ | < 1e-05 s⁻¹ | < 1e-05 s⁻¹ | 
G35C A39C U49A A53U | < 1e-05 s⁻¹ |  |  |  | 
G38C G62C | < 1e-05 s⁻¹ | < 1e-05 s⁻¹ | < 1e-05 s⁻¹ | < 1e-05 s⁻¹ | < 1e-05 s⁻¹
A39U U49A | < 1e-05 s⁻¹ |  |  |  | 
G38U A42C | < 1e-05 s⁻¹ |  | < 1e-05 s⁻¹ | < 1e-05 s⁻¹ | 
A36G U57C | < 1e-05 s⁻¹ | < 1e-05 s⁻¹ | < 1e-05 s⁻¹ |  | < 1e-05 s⁻¹
G35C G43U | < 1e-05 s⁻¹ |  |  | < 1e-05 s⁻¹ | < 1e-05 s⁻¹
C34A U56A | < 1e-05 s⁻¹ |  | < 1e-05 s⁻¹ |  | 
G38A G41U C68A | < 1e-05 s⁻¹ | < 1e-05 s⁻¹ | < 1e-05 s⁻¹ | < 1e-05 s⁻¹ | 
A36U G40C | < 1e-05 s⁻¹ |  | < 1e-05 s⁻¹ | < 1e-05 s⁻¹ | < 1e-05 s⁻¹
C34G G59U | < 1e-05 s⁻¹ | < 1e-05 s⁻¹ | < 1e-05 s⁻¹ | < 1e-05 s⁻¹ | < 1e-05 s⁻¹
A36U U46G | < 1e-05 s⁻¹ | < 1e-05 s⁻¹ |  | < 1e-05 s⁻¹ | < 1e-05 s⁻¹
G35C U45A | < 1e-05 s⁻¹ | < 1e-05 s⁻¹ | < 1e-05 s⁻¹ | < 1e-05 s⁻¹ | < 1e-05 s⁻¹
G37A G38A A39G | < 1e-05 s⁻¹ |  |  |  | 

Variant | self-cleavage kobs at 40 uM GlcN6P (glucosamine-6-phosphate [1]) | self-cleavage kobs at 640 uM GlcN6P (glucosamine-6-phosphate [2]) | self-cleavage kobs at 160 uM GlcN6P (glucosamine-6-phosphate [3]) | self-cleavage kobs at 10000 uM GlcN6P (glucosamine-6-phosphate [4]) | self-cleavage kobs at 2500 uM GlcN6P (glucosamine-6-phosphate [5])
G35A C61A | < 1e-05 s⁻¹ |  |  |  | < 1e-05 s⁻¹
G37A A52G C67U | < 1e-05 s⁻¹ |  |  |  | 
G41A A52C C58A | < 1e-05 s⁻¹ |  |  |  | 
G35A C50U | < 1e-05 s⁻¹ |  | < 1e-05 s⁻¹ |  | 
G35A G60A | < 1e-05 s⁻¹ | < 1e-05 s⁻¹ | < 1e-05 s⁻¹ | < 1e-05 s⁻¹ | < 1e-05 s⁻¹
G35A G60U | < 1e-05 s⁻¹ | < 1e-05 s⁻¹ | < 1e-05 s⁻¹ | < 1e-05 s⁻¹ | < 1e-05 s⁻¹
G38C G44U C58U A64U | < 1e-05 s⁻¹ |  |  |  | 
A39U U55G | 0.000507 ± 7.9e-05 s⁻¹ | 0.00371 ± 0.00061 s⁻¹ | 0.00122 ± 0.0003 s⁻¹ | 0.0282 ± 0.0058 s⁻¹ | 0.00715 ± 0.0012 s⁻¹
G38C A39C G43U U57G C71U | < 1e-05 s⁻¹ | < 1e-05 s⁻¹ |  | < 1e-05 s⁻¹ | < 1e-05 s⁻¹
G40C U65G | < 1e-05 s⁻¹ | 9.16e-05 ± 3.6e-05 s⁻¹ |  | 0.000854 ± 0.00025 s⁻¹ | 0.00036 ± 0.00012 s⁻¹
G37U U45C | < 1e-05 s⁻¹ | < 1e-05 s⁻¹ | < 1e-05 s⁻¹ | < 1e-05 s⁻¹ | < 1e-05 s⁻¹
G38A G59U | < 1e-05 s⁻¹ | < 1e-05 s⁻¹ | < 1e-05 s⁻¹ | < 1e-05 s⁻¹ | < 1e-05 s⁻¹
A39C C70U | 4.36e-05 ± 6.9e-06 s⁻¹ | 0.00019 ± 2.5e-05 s⁻¹ | 7.31e-05 ± 9.7e-06 s⁻¹ | 0.000616 ± 7.3e-05 s⁻¹ | 0.000461 ± 8.2e-05 s⁻¹
G37U G51U C67U | < 1e-05 s⁻¹ |  |  | < 1e-05 s⁻¹ | 
G37A A42U | 2.47e-05 ± 1.1e-05 s⁻¹ | 0.000193 ± 2.3e-05 s⁻¹ | 5.06e-05 ± 1.2e-05 s⁻¹ |  | 
C34U U69A | 0.000116 ± 2.4e-05 s⁻¹ | 0.00034 ± 0.00012 s⁻¹ |  |  | 
G37A A39U G41A U46C U56C A64U | < 1e-05 s⁻¹ |  |  |  | 
G35U U56G | < 1e-05 s⁻¹ | < 1e-05 s⁻¹ |  | < 1e-05 s⁻¹ | < 1e-05 s⁻¹
A36G U46C G63U C70U | < 1e-05 s⁻¹ |  |  | < 1e-05 s⁻¹ | < 1e-05 s⁻¹
A39C U49A | < 1e-05 s⁻¹ |  | < 1e-05 s⁻¹ | < 1e-05 s⁻¹ | 
G37A G63C | < 1e-05 s⁻¹ | < 1e-05 s⁻¹ | < 1e-05 s⁻¹ |  | < 1e-05 s⁻¹
